# In PubChem BioAssay AID1508642 (National Center for Advancing Translational Sciences (NCATS), 2021):
# Among all 43,000 compounds or so, about 200 (0.47%) were called active. Inconclusive results (about 12%) are left out. The call rests on the fitted dose curve; in most records, active means well fitted cell-killing curve with a large enough effect; inconclusive means small, poorly fitted or top-dose-only effect, or effect the other way; inactive means flat fitted curve, though single readings scatter. Some of the results follow.
# Assay: Cell viability qHTS assay in S16 Pmp22-F2sN cells; further: nearly all actives have a fitted effect of over 65% in size
# Conditions: S16 Pmp22-F2sN Schwann cells (luciferase reporters placed in the Pmp22 gene) viability, CellTiter-Glo, 24 h; series mostly up to 57.5 µM; activity change, negative = cytotoxicity: at the top concentration
# In short: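 Seed 500-1,000 S16 Pmp22-F2sN cells per well in phenol-red-free DMEM with 10% heat-inactivated FBS; pin-add 23 nL compound; incubate 24 h at 37C; add CellTiter-Glo, wait 15 min protected from light; read luminescence.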
# On the % scale 0 is the no-effect control and ±100 the full control effect.
row,SMILES,"activity change, negative = cytotoxicity"
1,COc1cccc(CNC(=O)CCC(=O)N2CC3CCCN3c3ccccc32)c1 (stereo not given),inactive: 9.2%
2,Cc1ccccc1NC(=O)CN(C)S(=O)(=O)c1cccc2nsnc12,inactive: 12.8%
3,O=C(Nc1ccccc1C(=O)O)c1cccc(S(=O)(=O)N2CCCC2)c1,inactive: 3.66%
4,O=C(NCc1ccc(F)cc1)C1CCN(C(=O)c2cnn(-c3ccccc3)c2-n2cccc2)CC1,inactive: -13.2%
5,CCCCN(CC)CCCNC(=O)c1cn(C)c2ccc(S(=O)(=O)N(C)C3CCCCC3)cc2c1=O,inactive: -2.6%
6,CCOc1cc(C(=O)NCc2ccc3c(c2)CCN3C(=O)CC)cc(OCC)c1OCC,inactive: -1.4%
7,COc1ccc(-c2[nH]ncc2C(=O)NCc2ccc(F)cc2)cc1,inactive: 0.0672%
8,Cc1ccc(C(=O)N2CCN(c3ccccc3F)CC2)cc1NC(=O)c1nsc2ccccc12,inactive: 2.38%
9,CCc1cccc(NC(=O)Cn2c(=O)n(CC3CCC(C(=O)NCCc4ccccc4)CC3)c(=O)c3ccccc32)c1 (stereo not given),inactive: -1.6%
10,CCC(Cn1nnc2ccccc2c1=O)NC(=O)Nc1cccc(Cl)c1 (stereo not given),inactive: 4.79%
11,COc1cc(OC)c(NC(=O)Cn2c(=O)cc(C(F)(F)F)c3c(C)nn(C)c32)cc1Cl,inactive: 11.3%
12,Cc1ccccc1NC(=O)CSc1nc2ccc(NC(=O)COc3ccccc3F)cc2s1,inactive: 9.88%
13,COCCNC(=O)C(=O)Nc1c2c(nn1-c1ccccc1)CS(=O)(=O)C2,inactive: 1.92%
14,CCc1ccccc1NC(=O)c1cnn2c(C(F)(F)F)cc(-c3ccc(OC)c(OC)c3)nc12,inactive: 5.81%
15,COc1cc(C(=O)Nc2ccc(-c3cc(C(F)(F)F)nn3-c3ccccc3)cc2)cc(OC)c1OC,inactive: -4.99%
16,COc1ccccc1CNc1nc(-c2ccco2)nn1S(=O)(=O)c1ccc(Cl)cc1,inactive: -2.69%
17,Cc1cccc(NC(=O)Cn2nc(N3CCN(c4ccccc4)CC3)ccc2=O)c1C,inactive: -2.79%
18,CCOC(=O)c1cnn(-c2cccc(F)c2)c1C1CCNCC1,inactive: -2.89%
19,COc1ccccc1OCc1ccc(C(=O)Nc2ccc(C)c(C)c2)o1,inactive: 20.8%
20,CCOc1ccc(CCNC(=O)Cn2nc(C)c3c(C)n(-c4ccccc4)nc3c2=O)cc1OCC,inactive: 4.55%
21,CCOC(=O)c1c(C)sc(-c2c(-c3cc(C)ccc3C)[nH]c3c2c(=O)[nH]c(=O)n3C)c1O,inactive: -1.87%
22,COc1ccc(OC)c(CNC(=O)c2cc(-c3ccc(Cl)s3)nc3ccccc23)c1,inactive: -6.4%
23,COc1cc(-c2nc3n(n2)C(c2ccc(F)cc2)C(C(N)=O)=C(C)N3)cc(OC)c1OC (stereo not given),inactive: -2.34%
24,Cc1ccc(-n2nc(C(=O)NCCc3cccc(C)c3)c3c4ccccc4n(C)c3c2=O)cc1,inactive: -3.97%

row,SMILES,"activity change, negative = cytotoxicity"
1,COc1ccccc1NC(=O)c1oc2ccccc2c1NC(=O)c1ccc(S(=O)(=O)N(C)C)cc1,inactive: 29.7%
2,COc1ccc(-c2cc3ccc(O)c(CN4CCN(CCO)CC4)c3oc2=O)cc1OC,inactive: 4.61%
3,Cc1cccn2c(Nc3ccc4c(c3)OCCO4)c(-c3ccc(Br)o3)nc12,inactive: -26.8%
4,O=C(Nc1cccc(Cl)c1Cl)c1cc2nc(-c3ccc4c(c3)OCO4)cc(C(F)(F)F)n2n1,inactive: 7.37%
5,CCCN(CCC)C(=O)c1c[nH]c2ccc(S(=O)(=O)Nc3cc(C)cc(C)c3)cc2c1=O,inactive: -3.43%
6,Cc1ccc(CNC(=O)c2cc(C3CC3)nc3c2c(C)nn3-c2cccc(Cl)c2C)cc1,inactive: 2.53%
7,Cc1cc(NC(=O)C2CCC(CNS(=O)(=O)c3ccc(Br)s3)CC2)ccc1Br (stereo not given),inactive: 21%
8,CCc1nn2c(-c3ccco3)ccnc2c1-c1ccccc1,inactive: 0.218%
9,COc1cc(OC)c(NC(=O)c2cc3c(s2)-c2ccc(Cl)cc2SC3)cc1Cl,inactive: 8.36%
10,Cc1cccc(N2CCN(C(=O)C3CCN(Cc4nc(-c5ccc(Cl)cc5)oc4C)CC3)CC2)c1C,inactive: -0.138%
11,COc1ccc(NC(=O)CSc2nc(-c3ccc(OC)cc3)cc(=O)[nH]2)cc1,inactive: 16.9%
12,CCOC(=O)c1cc(S(=O)(=O)Nc2ccc(OC(F)(F)F)cc2)[nH]n1,inactive: -11.1%
13,CCC1CN(C(=O)N2CCC(C(=O)NCc3cc(OC)ccc3OC)CC2)c2ccccc2O1 (stereo not given),inactive: -8.34%
14,COc1cccc(NC(=O)CN2C(=O)COc3ccc(S(=O)(=O)N4CCCCCC4)cc32)c1,inactive: 4.41%
15,CCc1ccc(NC(=O)CC2C(=O)N(c3ccc(C)cc3)C(=O)N2CCc2ccncc2)cc1 (stereo not given),inactive: -14.5%
16,CCOc1ccc(NC(=O)Cn2cc(C(=O)c3ccc(OCC)cc3)c(=O)c3cc4c(cc32)OCCO4)cc1,inactive: 4.32%
17,Cc1ccc(CCNC(=O)c2cc3cc4cc(C)ccc4nc3s2)cc1,inactive: 4.14%
18,COc1ccc(NC(=O)N(C(C)C)C2CCN(C(C)=O)CC2)c(OC)c1,inactive: 4.73%
19,COc1ccccc1Cn1c(CNS(=O)(=O)c2ccc(CC(C)C)cc2)nc2cccnc21,inactive: -8.82%
20,Cc1cc(SCC(=O)Nc2ccc(Cl)cc2)nc2ccccc12,inactive: -5.08%
21,Cc1cccc(NC(=O)CSc2cn(CC(=O)N3CCCC3)c3ccccc23)c1C,inactive: -0.0875%
22,CC(=O)N1CCCc2cc(S(=O)(=O)N3CCCC(C(=O)NCc4ccccc4)C3)ccc21 (stereo not given),inactive: -5.2%
23,Cc1ccc(Cn2cc(C(=O)c3ccc(C)cc3)c(=O)c3ccc(C)nc32)cc1,inactive: -10.8%
24,CCc1ccc(-c2cc(C)no2)cc1S(=O)(=O)Nc1ccc(Cl)cn1,inactive: 1.93%

row,SMILES,"activity change, negative = cytotoxicity"
1,Nc1c(C(=O)NCc2ccc3c(c2)OCO3)nnn1CC(=O)Nc1ccc(Br)cc1,inactive: -2.74%
2,Cc1cccc(C)c1OCC(=O)N1CCC(c2nc3ccccc3o2)CC1,inactive: 9.05%
3,COC(=O)c1ccc(NC(=O)N2CCC(CN3CCc4ccccc4C3)CC2)cc1,inactive: 1.62%
4,CCOc1ccc(C(=O)Nc2ccc(C(=O)OCc3cc(=O)n4nc(CC)sc4n3)cc2)cc1,inactive: 7.04%
5,COc1ccc(NC(=O)CSc2ccc(-c3cccs3)nn2)cc1,inactive: -5.18%
6,CCOc1ccc(-c2c(C)nn3c(-c4ccccc4)c(C(=O)NCCOC)cnc23)cc1OCC,inactive: -0.163%
7,O=C(COc1ccc2oc3c(c2c1)CCCC3)Nc1ccc(Cl)cc1,inactive: 8.42%
8,CCOc1ccc(N(CC)S(=O)(=O)N2CCCC(C(=O)Nc3ccc(NC(C)=O)cc3)C2)cc1 (stereo not given),inactive: 3.54%
9,CCOC(=O)c1ccc(NS(=O)(=O)c2cn(C)c(C)n2)cc1,inactive: 18.4%
10,Cc1ccc(S(=O)(=O)N2CCCc3cc(NC(=O)c4ccc(F)c(F)c4)ccc32)cc1,inactive: -29.3%
11,Cc1cc(C)c(Cn2c(=O)n(-c3ccccc3Cl)c(=O)c3c(C)c(C(=O)N(C)C)sc32)c(C)c1,inactive: 1.17%
12,Cc1cn2c(=O)cc(COc3cccc(NC(=O)c4ccccc4Cl)c3)nc2s1,inactive: 9.48%
13,COc1ccc(N2CCN(C(=O)c3ccc4c(c3)N(Cc3cc(C)ccc3C)C(=O)c3ccccc3S4=O)CC2)cc1 (stereo not given),inactive: 14.3%
14,COc1cccc(N2CC(NC(=O)C3CCCCC3)CC2=O)c1 (stereo not given),inactive: 1.91%
15,Cc1ccc(Oc2nc3c(c(=O)n(Cc4ccccc4Cl)c(=O)n3C)n2C)cc1C,inactive: -17.3%
16,COc1ccc(-c2cc3nc(C)c(CCC(=O)Nc4ccc(F)cc4F)c(C)n3n2)c(OC)c1,inactive: 13.3%
17,COc1ccc(C(=O)Nc2nnc(S(=O)(=O)N3CCN(c4ccc(C)cc4)CC3)s2)cc1,inactive: 4.37%
18,CC(Oc1ccccc1)C(=O)Nc1nnc(S(=O)(=O)N2CCCCCC2)s1 (stereo not given),inactive: 6.01%
19,Cc1ccccc1C(=O)Nc1cccc(-c2cn3cccnc3n2)c1,inactive: 18.1%
20,COc1ccc(CNc2nc(-c3ccco3)nn2C(=O)CC(C)C)cc1,inactive: 2.67%
21,CCCNc1ccc(-c2nc(-c3ccco3)no2)cc1[N+](=O)[O-],inactive: 12.4%
22,Cc1cc(S(=O)(=O)n2ccnc2C(C)C)cc([N+](=O)[O-])c1C,inactive: -4.93%
23,O=C(Nc1cc(C(F)(F)F)ccc1Cl)c1ccc2c(c1)CCN2S(=O)(=O)c1ccccc1,inactive: 4.6%
24,Cc1ccc(CCNC(=O)c2ccc(CNS(=O)(=O)c3ccc(C)cc3)cc2)cc1,inactive: 15.8%

row,SMILES,"activity change, negative = cytotoxicity"
1,Cc1ccc(Cl)cc1N1CCN(C(=O)c2cn(CC(C)C)c(=O)c3c2c2ccccc2n3C)CC1,inactive: -27.5%
2,CCOC(=O)c1nc(Nc2ccc(Cl)cc2)c2c(C)noc2n1,inactive: 0.0628%
3,O=C(CN1C(=O)C2CCCCN2c2ccc(C(=O)N3CCCC3)cc21)NCc1ccccc1F (stereo not given),inactive: -1.72%
4,CN(c1ccccc1)C(CNS(=O)(=O)c1ccccc1)c1ccccc1 (stereo not given),inactive: -1.22%
5,CCCCN(CC)CCNc1ncnc2onc(-c3ccc(Cl)cc3)c12,inactive: 16.9%
6,Cc1ccc(N2C(=O)CS(=O)(=O)C23C(=O)N(Cc2ccccc2F)c2ccccc23)cc1Cl (stereo not given),inactive: 27.5%
7,CNS(=O)(=O)c1cn(CC(=O)N2CCN(c3ccc(C)cc3C)CC2)cc1S(=O)(=O)NC,inactive: 0.956%
8,COc1ccc(Cc2nnc(C(=O)NCCCN3CCN(c4ccccc4F)CC3)o2)cc1OC,inactive: -16%
9,CC(C)COc1ccc(Nc2ncnc3ccc(Br)cc23)cc1,inactive: -4.67%
10,COC(=O)c1sccc1S(=O)(=O)N(CC(=O)NCc1ccc(F)cc1)c1ccc(C)c(C)c1,inactive: 7.63%
11,Cc1ccc(CN(Cc2ccco2)C(=O)c2cccc(C)c2)cc1,inactive: 4.65%
12,CNS(=O)(=O)c1cn(CC(=O)Nc2cccc(C(F)(F)F)c2)cc1S(=O)(=O)NC,inactive: -14.3%
13,Cc1cccc(NC(=O)NC2COc3ccccc3C2)c1C (stereo not given),inactive: -1.84%
14,COc1ccc(OC)c(-c2noc(N3CCN(c4cc(Cl)ccc4C)CC3)n2)c1,inactive: 4.42%
15,Cc1ccc(C)c(NC(=O)CSc2nnc(C)n3c2cc2occc23)c1,inactive: -3.51%
16,COc1cccc(C(=O)c2sc(Nc3ccc(F)c(Cl)c3)nc2N)c1,inactive: -6.78%
17,Cn1c(=O)c2sccc2n2c(CCC(=O)Nc3ccc(F)cc3)nnc12,inactive: -4.57%
18,CCC(C(=O)OC)n1nnc2sc(-c3ccccc3)cc2c1=O (stereo not given),inactive: -3.63%
19,CCOC(=O)c1ccc(CN(Cc2ccc(Br)cc2)S(=O)(=O)c2cccc(C(F)(F)F)c2)cc1,inactive: -0.142%
20,COc1ccc2c(c1)c(=O)c(C(=O)c1ccc(C)cc1)cn2Cc1ccccc1F,inactive: -13.1%
21,COc1ccccc1NC(=O)CN1CCN(CC(=O)Nc2ccc(F)c(F)c2)CC1,inactive: -12.6%
22,COC(=O)c1ccc(Cl)cc1NC(=O)Nc1nnc(N(C)Cc2ccccc2)s1,inactive: -3.37%
23,CC(CNC(=O)CCS(=O)(=O)c1cc2c(cc1Cl)NC(=O)CO2)c1ccccc1 (stereo not given),inactive: 14.7%
